According to the supplement of paper PMC12217912:
This is one part of the list. Sequences were assembled here from the parent chain. Inactive controls read about 0.05.

B1: TEV protease; numbered along this chain (parent)
chain: MGESLFKGPRDYNPISSSICHLTNESDGHTTSLYGIGFGPFIITNKHLFRRNNGTLVVQSLHGVFKVKDTTTLQQHLVDGRDMIIIRMPKDFPPFPQKLKFREPQREERICLVTTNFQTKSMSSMVSDTSCTFPSGDGIFWKHWIQTKDGQCGSPLVSTRDGFIVGIHSASNFTNTNNYFTSVPKNFMELLTNQEAQQWVSGWRLNADSVLWGGHKVFMVKPEEPFQPVKEATQL

Variants of: B1
Assay: raw area under fraction-flipped curve 0-4 h after induction (AUC4h, not background-subtracted), DNA-recorder readout of cleavage of the substrate (dimensionless); higher = more cleavage of the substrate by the protease variant
Conditions: temperature: 34 °C; time window: 0-4 h after rhamnose induction
Experimental: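 In vivo DNA recorder in E. coli TOP10(DE3) ΔrhaA at 34 °C. Each TEVp single-site mutant (parent TEVp 0) is paired with a single-site variant of the 7-mer TEVs (canonical ENLYFQ|S). The substrate sits between flexible linkers in a Bxb1-sfGFP-TEVs-SsrA fusion, so cleavage stabilises Bxb1 and speeds flipping of a recombination array, read by NGS. The value is the raw area under the fraction-flipped curve over 0-4 h after rhamnose induction (AUC4h), with ≥20 reads per time point. It is not background-subtracted; inactive controls average about 0.047.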
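Further: Bxb1 expression induced with 0.2% (w/v) L-rhamnose at OD600 near 0.5, cultures sampled hourly, flipped fraction per protease–substrate barcode pair counted by paired-end Illumina sequencing.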

Variant	area with substrate ENLYFQA	area with substrate ENLYFQC	area with substrate ENLYFQD	area with substrate ENLYFQE	area with substrate ENLYFQF	area with substrate ENLYFQG	area with substrate ENLYFQH	area with substrate ENLYFQI	area with substrate ENLYFQK	area with substrate ENLYFQL	area with substrate ENLYFQM	area with substrate ENLYFQN	area with substrate ENLYFQP	area with substrate ENLYFQR	area with substrate ENLYFQS	area with substrate ENLYFQT	area with substrate ENLYFQV	area with substrate ENLYFQW	area with substrate ENLYFQY	area with substrate ENLYFQQ
MGESLFKGPRDYNPCSSSICHLTNESDGHTTSLYGIGFGPFIITNKHLFRRNNGTLVVQSLHGVFKVKDTTTLQQHLVDGRDMIIIRMPKDFPPFPQKLKFREPQREERICLVTTNFQTKSMSSMVSDTSCTFPSGDGIFWKHWIQTKDGQCGSPLVSTRDGFIVGIHSASNFTNTNNYFTSVPKNFMELLTNQEAQQWVSGWRLNADSVLWGGHKVFMVKPEEPFQPVKEATQL [I15C]	0.0975	0.113	0.0743	0.0909	0.0799	0.14	0.0764	0.0654	0.0599	0.05	0.0902	0.0863	0.0152	0.0558	0.0979	0.0488	0.051	0.0639	0.0804	–
MGESLFKGPRDYNPISDSICHLTNESDGHTTSLYGIGFGPFIITNKHLFRRNNGTLVVQSLHGVFKVKDTTTLQQHLVDGRDMIIIRMPKDFPPFPQKLKFREPQREERICLVTTNFQTKSMSSMVSDTSCTFPSGDGIFWKHWIQTKDGQCGSPLVSTRDGFIVGIHSASNFTNTNNYFTSVPKNFMELLTNQEAQQWVSGWRLNADSVLWGGHKVFMVKPEEPFQPVKEATQL [S17D]	0.105	0.147	0.078	–	–	0.118	0.0996	0.0532	0.0888	0.0601	0.117	–	0.0412	0.0614	0.105	0.0703	0.0617	0.0678	–	0.0735
MGESLFKGPRDYNPISFSICHLTNESDGHTTSLYGIGFGPFIITNKHLFRRNNGTLVVQSLHGVFKVKDTTTLQQHLVDGRDMIIIRMPKDFPPFPQKLKFREPQREERICLVTTNFQTKSMSSMVSDTSCTFPSGDGIFWKHWIQTKDGQCGSPLVSTRDGFIVGIHSASNFTNTNNYFTSVPKNFMELLTNQEAQQWVSGWRLNADSVLWGGHKVFMVKPEEPFQPVKEATQL [S17F]	0.104	0.124	0.0804	–	0.0507	0.0948	–	0.0595	0.0573	0.0565	–	0.0717	0.0785	0.0577	0.0949	0.055	0.0579	0.0483	0.0593	–
MGESLFKGPRDYNPISQSICHLTNESDGHTTSLYGIGFGPFIITNKHLFRRNNGTLVVQSLHGVFKVKDTTTLQQHLVDGRDMIIIRMPKDFPPFPQKLKFREPQREERICLVTTNFQTKSMSSMVSDTSCTFPSGDGIFWKHWIQTKDGQCGSPLVSTRDGFIVGIHSASNFTNTNNYFTSVPKNFMELLTNQEAQQWVSGWRLNADSVLWGGHKVFMVKPEEPFQPVKEATQL [S17Q]	0.124	0.153	0.0614	0.0472	–	0.14	–	0.0481	0.0572	0.0694	0.0944	0.085	0.0606	0.0542	0.115	0.0631	0.0454	0.068	0.0599	–
MGESLFKGPRDYNPISSRICHLTNESDGHTTSLYGIGFGPFIITNKHLFRRNNGTLVVQSLHGVFKVKDTTTLQQHLVDGRDMIIIRMPKDFPPFPQKLKFREPQREERICLVTTNFQTKSMSSMVSDTSCTFPSGDGIFWKHWIQTKDGQCGSPLVSTRDGFIVGIHSASNFTNTNNYFTSVPKNFMELLTNQEAQQWVSGWRLNADSVLWGGHKVFMVKPEEPFQPVKEATQL [S18R]	0.0776	0.0902	–	–	0.0772	–	0.0666	0.052	0.0624	0.0618	0.078	0.0533	–	0.0537	0.0903	0.0552	–	0.0672	0.0515	–
MGESLFKGPRDYNPISSSHCHLTNESDGHTTSLYGIGFGPFIITNKHLFRRNNGTLVVQSLHGVFKVKDTTTLQQHLVDGRDMIIIRMPKDFPPFPQKLKFREPQREERICLVTTNFQTKSMSSMVSDTSCTFPSGDGIFWKHWIQTKDGQCGSPLVSTRDGFIVGIHSASNFTNTNNYFTSVPKNFMELLTNQEAQQWVSGWRLNADSVLWGGHKVFMVKPEEPFQPVKEATQL [I19H]	0.0897	0.106	0.0573	–	–	–	0.0647	0.0476	0.0519	0.0591	0.0727	–	0.0423	0.0533	0.0941	0.0563	0.049	0.062	–	–
MGESLFKGPRDYNPISSSIFHLTNESDGHTTSLYGIGFGPFIITNKHLFRRNNGTLVVQSLHGVFKVKDTTTLQQHLVDGRDMIIIRMPKDFPPFPQKLKFREPQREERICLVTTNFQTKSMSSMVSDTSCTFPSGDGIFWKHWIQTKDGQCGSPLVSTRDGFIVGIHSASNFTNTNNYFTSVPKNFMELLTNQEAQQWVSGWRLNADSVLWGGHKVFMVKPEEPFQPVKEATQL [C20F]	0.0545	0.0736	0.051	–	–	–	0.0556	–	0.0465	0.0399	0.0643	0.0566	–	0.0514	0.067	0.0575	0.0461	0.057	0.0719	–
MGESLFKGPRDYNPISSSICGLTNESDGHTTSLYGIGFGPFIITNKHLFRRNNGTLVVQSLHGVFKVKDTTTLQQHLVDGRDMIIIRMPKDFPPFPQKLKFREPQREERICLVTTNFQTKSMSSMVSDTSCTFPSGDGIFWKHWIQTKDGQCGSPLVSTRDGFIVGIHSASNFTNTNNYFTSVPKNFMELLTNQEAQQWVSGWRLNADSVLWGGHKVFMVKPEEPFQPVKEATQL [H21G]	0.105	0.114	0.0732	–	0.0798	0.106	0.0814	0.0483	0.0616	0.0551	0.0942	0.0699	0.058	0.0445	0.0997	0.0658	–	0.0593	0.0723	0.111
MGESLFKGPRDYNPISSSICNLTNESDGHTTSLYGIGFGPFIITNKHLFRRNNGTLVVQSLHGVFKVKDTTTLQQHLVDGRDMIIIRMPKDFPPFPQKLKFREPQREERICLVTTNFQTKSMSSMVSDTSCTFPSGDGIFWKHWIQTKDGQCGSPLVSTRDGFIVGIHSASNFTNTNNYFTSVPKNFMELLTNQEAQQWVSGWRLNADSVLWGGHKVFMVKPEEPFQPVKEATQL [H21N]	0.0952	–	–	–	–	0.095	0.0882	0.0655	0.0901	0.0593	–	0.0572	–	0.0574	0.0891	0.0689	0.06	0.058	0.0664	–
MGESLFKGPRDYNPISSSICWLTNESDGHTTSLYGIGFGPFIITNKHLFRRNNGTLVVQSLHGVFKVKDTTTLQQHLVDGRDMIIIRMPKDFPPFPQKLKFREPQREERICLVTTNFQTKSMSSMVSDTSCTFPSGDGIFWKHWIQTKDGQCGSPLVSTRDGFIVGIHSASNFTNTNNYFTSVPKNFMELLTNQEAQQWVSGWRLNADSVLWGGHKVFMVKPEEPFQPVKEATQL [H21W]	0.0847	0.125	0.0791	–	–	0.101	0.116	0.0699	0.0725	0.0548	0.0979	0.0818	0.045	0.0605	0.106	0.0677	0.0586	0.0607	0.0689	0.0635
MGESLFKGPRDYNPISSSICYLTNESDGHTTSLYGIGFGPFIITNKHLFRRNNGTLVVQSLHGVFKVKDTTTLQQHLVDGRDMIIIRMPKDFPPFPQKLKFREPQREERICLVTTNFQTKSMSSMVSDTSCTFPSGDGIFWKHWIQTKDGQCGSPLVSTRDGFIVGIHSASNFTNTNNYFTSVPKNFMELLTNQEAQQWVSGWRLNADSVLWGGHKVFMVKPEEPFQPVKEATQL [H21Y]	0.0884	0.101	0.0725	–	0.0792	0.121	–	0.0638	0.073	0.0625	0.0905	0.0586	0.0685	0.0461	0.093	–	0.0514	–	–	–
MGESLFKGPRDYNPISSSICHKTNESDGHTTSLYGIGFGPFIITNKHLFRRNNGTLVVQSLHGVFKVKDTTTLQQHLVDGRDMIIIRMPKDFPPFPQKLKFREPQREERICLVTTNFQTKSMSSMVSDTSCTFPSGDGIFWKHWIQTKDGQCGSPLVSTRDGFIVGIHSASNFTNTNNYFTSVPKNFMELLTNQEAQQWVSGWRLNADSVLWGGHKVFMVKPEEPFQPVKEATQL [L22K]	0.0516	0.0444	0.047	–	0.0288	0.0586	0.0543	0.0406	0.0531	0.0485	–	0.0422	0.047	0.0469	0.0472	0.049	0.0518	0.0409	–	–
MGESLFKGPRDYNPISSSICHVTNESDGHTTSLYGIGFGPFIITNKHLFRRNNGTLVVQSLHGVFKVKDTTTLQQHLVDGRDMIIIRMPKDFPPFPQKLKFREPQREERICLVTTNFQTKSMSSMVSDTSCTFPSGDGIFWKHWIQTKDGQCGSPLVSTRDGFIVGIHSASNFTNTNNYFTSVPKNFMELLTNQEAQQWVSGWRLNADSVLWGGHKVFMVKPEEPFQPVKEATQL [L22V]	0.0769	0.123	0.0596	0.0639	–	0.0934	0.056	0.0538	0.0567	0.0662	0.0762	–	–	0.0626	0.0954	0.0625	0.0461	0.0714	0.0738	–
MGESLFKGPRDYNPISSSICHWTNESDGHTTSLYGIGFGPFIITNKHLFRRNNGTLVVQSLHGVFKVKDTTTLQQHLVDGRDMIIIRMPKDFPPFPQKLKFREPQREERICLVTTNFQTKSMSSMVSDTSCTFPSGDGIFWKHWIQTKDGQCGSPLVSTRDGFIVGIHSASNFTNTNNYFTSVPKNFMELLTNQEAQQWVSGWRLNADSVLWGGHKVFMVKPEEPFQPVKEATQL [L22W]	0.0546	–	–	–	0.0412	0.0415	–	–	–	0.106	–	0.0512	0.0424	–	0.0469	0.0504	0.0461	0.0366	0.0401	–
MGESLFKGPRDYNPISSSICHLINESDGHTTSLYGIGFGPFIITNKHLFRRNNGTLVVQSLHGVFKVKDTTTLQQHLVDGRDMIIIRMPKDFPPFPQKLKFREPQREERICLVTTNFQTKSMSSMVSDTSCTFPSGDGIFWKHWIQTKDGQCGSPLVSTRDGFIVGIHSASNFTNTNNYFTSVPKNFMELLTNQEAQQWVSGWRLNADSVLWGGHKVFMVKPEEPFQPVKEATQL [T23I]	0.119	0.103	0.0766	–	0.0965	–	0.147	0.057	0.0579	0.0728	0.0917	0.0792	0.0649	0.0612	0.11	0.0796	0.0567	0.0741	0.0712	0.0823
MGESLFKGPRDYNPISSSICHLRNESDGHTTSLYGIGFGPFIITNKHLFRRNNGTLVVQSLHGVFKVKDTTTLQQHLVDGRDMIIIRMPKDFPPFPQKLKFREPQREERICLVTTNFQTKSMSSMVSDTSCTFPSGDGIFWKHWIQTKDGQCGSPLVSTRDGFIVGIHSASNFTNTNNYFTSVPKNFMELLTNQEAQQWVSGWRLNADSVLWGGHKVFMVKPEEPFQPVKEATQL [T23R]	0.1	0.094	0.0938	–	0.0725	0.129	0.0734	0.0599	0.0542	0.0636	0.0778	0.078	0.0476	0.0592	0.0949	0.0486	0.0679	0.0536	0.0849	–
MGESLFKGPRDYNPISSSICHLTNPSDGHTTSLYGIGFGPFIITNKHLFRRNNGTLVVQSLHGVFKVKDTTTLQQHLVDGRDMIIIRMPKDFPPFPQKLKFREPQREERICLVTTNFQTKSMSSMVSDTSCTFPSGDGIFWKHWIQTKDGQCGSPLVSTRDGFIVGIHSASNFTNTNNYFTSVPKNFMELLTNQEAQQWVSGWRLNADSVLWGGHKVFMVKPEEPFQPVKEATQL [E25P]	0.066	0.0443	0.0468	0.0644	0.0427	0.0755	0.045	0.0569	0.0463	0.0533	0.0518	0.0665	0.0565	0.0641	0.0634	0.0597	0.047	0.0542	0.048	–
